# From PMC12136788
# The list shows a part of the results.
# B1: chr8:10764960:10765785:-|three_prime_utr|ENSG00000254093|control|control|control (ssRNA)
# RNA: GGGAGUUCUACAGUCCGACGAUCCCGGGACUUCACCCUGAAGCCCAAAAAGAGGAGAGGGAAGAAAAAGCUGCAAAAACCAGUAGAGAUAGCAGAGGACGCUACACUAGAAGAAACGCUAGUGAAAAAGAAGAAGAAGAAAGACAACAGAGGAUUGAGCAUCA
# B2: chr1:225495143:225495244:-|3pUTR|ENSG00000154380|msi1|FALSE|unique (ssRNA)
# RNA: GGGAGUUCUACAGUCCGACGAUCACAUUAUUAUGAUGGUUUUUGUGCUCUUGUACGUUGGAUGUCUUAAGCUGAGUACAGUUUAGGGGAUCCUUUCUAAUGACAGGAAGGCACUGCUUUCCUCAACACUGUGAUCUGACCUGUCAACAGAGGAUUGAGCAUCA
# B3: chr1:226361101:226361261:-|3pUTR|ENSG00000143799|msi1|FALSE|unique (ssRNA)
# RNA: GGGAGUUCUACAGUCCGACGAUCUUUCUUGCCAGGUAGAUAAAACUGACAUAGAGAAAAGGCUGGAGAGAGAUUCUGUUGCAUAGACUAGUCCUAUGGAAAAAACCAAGCUUCGUUAGAAUGUCUGCCUUACUGGUUUCCCCACAACAGAGGAUUGAGCAUCA
# B4: chrX:103499925:103500756:-|CDS|ENSG00000172476|control|control|control (ssRNA)
# RNA: GGGAGUUCUACAGUCCGACGAUCUGAGGUCAGCCCUCUGUGCAAUUUCAACAUCAUAGAGUCUUUCACGGAGCUGGCCAGGAUAGUGCUGCUGCGGCACAGGAUGAAUUGGCUCGGGAGGCCGAGCAAGGUACUGAGCUUGCACAACAGAGGAUUGAGCAUCA
# B5: chr1:116393555:116393656:+|CDS|ENSG00000163399|msi1|total|mutant (ssRNA)
# RNA: GGGAGUUCUACAGUCCGACGAUCCCCCAACACAUCGGAGCCCCAACACCUGUUGGUGAUGAAGGGCGCCCCAGAAAGGAUCCCCGACCGUUGCAGCUCUAUCCUCCUCCACGGCAAGGAGCAGCCCCUGGAUGAGGAGCUGAACAACAGAGGAUUGAGCAUCA
# B6: chr6:134169319:134169461:-|3pUTR|ENSG00000118515|unk|FALSE|unique (ssRNA)
# RNA: GGGAGUUCUACAGUCCGACGAUCUGCAUUCCUGAUAAUUGUAUGUAUUGUAUAAAGAACGUCUGUACAUUGGGUUAUAACACUAGUAUAUUUAAACUUACAGGCUUAUUUGUAAUGUAAACCACCAUUUUAAUGUACUGUAAUCAACAGAGGAUUGAGCAUCA
# B7: chr22:43879677:43880794:-|three_prime_utr|ENSG00000100341|control|control|control (ssRNA)
# RNA: GGGAGUUCUACAGUCCGACGAUCGAGAAAGGAGGACAGCCACAGAGACACAUGUCUUACUUUCAGAAUUUCCACGGGGGGACUAGGAGGGCAGCAUUGCUGGGGAGAGGGGCUCCUGUUCUGCCGUGGAGCUGCCCACGGAGCCAACAGAGGAUUGAGCAUCA
# B8: chr14:75134463:75134564:-|3pUTR|ENSG00000170348|msi1|total|mutant (ssRNA)
# RNA: GGGAGUUCUACAGUCCGACGAUCCUGUUUGGACUAUGUUUUCUUUUCUUCUCCCACUUGCUCAGCAGCUUGGGCUUCCAUUCCCGUUCUUUUACCAAGAUUUUUGUGUGACCAUGUUGACUUCAUUUGGAUUGCCCUCUUUCACAACAGAGGAUUGAGCAUCA
# B9: ENSG00000249115:stop:overlap|stop_codon|ENSG00000249115|stop_codon|NA|stop_codon (ssRNA)
# RNA: GGGAGUUCUACAGUCCGACGAUCACAGUCCACAGGUGAGAAGCAUAUGCUACAAGAUUCUCUUUCAUCCGAAAAAUGACUUGUAGAUCUUCUGCUCUAAGCCCAACCAGGUGCUGGGUGAUGCUGGGGACAAUGGGUCACAAGCAACAGAGGAUUGAGCAUCA
# B10: chr1:65389253:65389354:+|CDS|ENSG00000116675|unk|FALSE|unique (ssRNA)
# RNA: GGGAGUUCUACAGUCCGACGAUCGUUAGAUGCAUGUGAUGUACCAGAAAAAUAUCCUCAGCUAUUUCAGGUGACACUGGAUGUAGAACUACAGCCCCAUGACAAAGUAAUAGACUUAACUCCACCAUGGGAACAUUACUGCACCAACAGAGGAUUGAGCAUCA
# B11: chr21:25881051:25881209:-|3pUTR|ENSG00000142192|msi1_unk|total|mutant (ssRNA)
# RNA: GGGAGUUCUACAGUCCGACGAUCUUUUUUUUCCAUGACUGCAUUUUACUGUACAGAUUGCUGCUUCUGCUAUAUUUGUGAUACCGGAAUUAAGAGGAUACACACGUUUGUUUCUUCGUGCCUGUUUUAUGUGCACACAUCCGGCAACAGAGGAUUGAGCAUCA
# B12: chr4:119293926:119294030:+|3pUTR|ENSG00000145390|unk|total|mutant (ssRNA)
# RNA: GGGAGUUCUACAGUCCGACGAUCGAUGGAAUUUAAUUUUGCUCCCCGAAUUUUUGUCUUCAGAAUAUCCCGUUAAGAUAAAUCCGGCCUUUGACUAUUACCGGUAUUCAUAAAUGCUACUUCCGCCAUGUAAGUUAAAAAGUUCAACAGAGGAUUGAGCAUCA
# B13: ENSG00000104047:stop:overlap|stop_codon|ENSG00000104047|stop_codon|NA|stop_codon (ssRNA)
# RNA: GGGAGUUCUACAGUCCGACGAUCACCAGUUGAUAAAGAAUGCCAAAUGCUCUGGAGAUAAGGAAACAGGAAAACUUACACAUUAGUUUUUAACAAGCCACUUAUGUCUUUUUAUUUUGCUAACAUUAAUAAACUUAUAUUUGUCAACAGAGGAUUGAGCAUCA
# B14: ENSG00000070961:be:win_1701|CDS|ENSG00000070961|bound_else_gene|NA|bound_elsewhere_windowed (ssRNA)
# RNA: GGGAGUUCUACAGUCCGACGAUCACCAGAAGAAGCACUGUACAAAGUCUACACCUUCAAUUCUGUUAGGAAGUCCAUGAGUACUGUCCUGAAAAAUUCAGAUGGAAGUUAUCGAAUAUUCAGCAAGGGUGCAUCUGAGAUAAUCAACAGAGGAUUGAGCAUCA
# B15: chr2:165880514:165880799:-|CDS|ENSG00000123607|control|control|control (ssRNA)
# RNA: GGGAGUUCUACAGUCCGACGAUCGAUGGCAUGGAAAUAUAGCAAUCGGACAAAUCCGGCAGUAGGUGAGUUUGGCAAUCACCUAGAUUUUUCACAGAAAAAUUAUGUUGUAUUUAUUAAUUUUCAUUUAAAUGCAUUUGAUUUCAACAGAGGAUUGAGCAUCA
# B16: chr4:155836688:155836857:-|CDS|ENSG00000256394|control|control|control (ssRNA)
# RNA: GGGAGUUCUACAGUCCGACGAUCUAAGGAUUUAUGUACAGUAGGAACACAUAACUCUAGCUGCCCCGUUUCUUGUGAAGAAAUAGAAUACCCGGCCACUAUUUCUUAUUCCUCUUUUCCAAGUCAAAAAGCUUUGAAAUAUCUCAACAGAGGAUUGAGCAUCA
# B17: chr5:147393259:147393361:-|3pUTR|ENSG00000113657|msi1_unk|total|mutant (ssRNA)
# RNA: GGGAGUUCUACAGUCCGACGAUCAGACCCAACCAUUUCUUCCACCUGCUUGAUUGUGCCAGUGUUUGCUCAGGCCUCUUUCUCCGUGUUGCUUUCAAAUCCUUCUCUUUCCUGGGUUGGGAAGGCCAGGCAGGGACAGAGCAACAACAGAGGAUUGAGCAUCA
# B18: chr2:53865134:53865235:-|3pUTR|ENSG00000068878|unk|FALSE|unique (ssRNA)
# RNA: GGGAGUUCUACAGUCCGACGAUCGUCCUGUCAUUUCAUUCAUCUCAAAUUAUUUUGAAUUCUUCCCAAAUGGCUGCUGGAUUUAGGUGGUAAUAGGGGCUGUGGGCCAUAAAUCUGAAGCCUUGAGAACCUUGGGUCUGGAGACAACAGAGGAUUGAGCAUCA
# B19: chr1:46316673:46316776:+|3pUTR|ENSG00000173660|unk|FALSE|unique (ssRNA)
# RNA: GGGAGUUCUACAGUCCGACGAUCUGUUUCUUAUUUGUGUAACUGUAAGUUCACAUGAACCUCAUGGGUUUGGCUUAGGCUGGUAGCUUCUAUGUAAUUCGCAAUGAUUCCAUCUAAAUAAAAGUUCUAUGAUCUGCAAACCUGCAACAGAGGAUUGAGCAUCA
# B20: chr10:78022286:78022401:-|CDS|ENSG00000148606|unk|FALSE|unique (ssRNA)
# RNA: GGGAGUUCUACAGUCCGACGAUCAACAUAGUAUCUCCAUUUCUGCCUUUCUUCGUUUCCAUAGGAAAACUUGAAUCCCUUAGUAGUUCUGAAUUUAUUUAAACGAAUCCCAGCUGAAGAUGUUCCUCUACUUCUGAUGAACCCCAACAGAGGAUUGAGCAUCA
# B21: chr17:81509976:81510077:-|3pUTR|ENSG00000184009|msi1|FALSE|unique (ssRNA)
# RNA: GGGAGUUCUACAGUCCGACGAUCUCUCGAUUCUUUGAAGAGAUGACAACAAAUUUUGGUUUUCUACUGUUAUGUGAGAACAUUAGGCCCCAGCAACACGUCAUUGUGUAAGGAAAAAUAAAAGUGCUGCCGUAACCAAUGAAUCAACAGAGGAUUGAGCAUCA
# B22: chr7:20412513:20412614:+|3pUTR|ENSG00000105855|msi1|total|mutant (ssRNA)
# RNA: GGGAGUUCUACAGUCCGACGAUCUCCUUAAAAAUCCAGAGUUUAUAUUUUUUUUAUACCCUCACUUGUUUGCACUAACUUUACCGUGGACCAAGGCUGUUACCACCGGAAGGGACAAACUUCCUUGCCGGCAACUCAGUGUUACAACAGAGGAUUGAGCAUCA
# Target: MSI1 full-length (mouse, UniProt Q61474 1-362)
# UniProt Q61474, sequence (Q61474 whole entry): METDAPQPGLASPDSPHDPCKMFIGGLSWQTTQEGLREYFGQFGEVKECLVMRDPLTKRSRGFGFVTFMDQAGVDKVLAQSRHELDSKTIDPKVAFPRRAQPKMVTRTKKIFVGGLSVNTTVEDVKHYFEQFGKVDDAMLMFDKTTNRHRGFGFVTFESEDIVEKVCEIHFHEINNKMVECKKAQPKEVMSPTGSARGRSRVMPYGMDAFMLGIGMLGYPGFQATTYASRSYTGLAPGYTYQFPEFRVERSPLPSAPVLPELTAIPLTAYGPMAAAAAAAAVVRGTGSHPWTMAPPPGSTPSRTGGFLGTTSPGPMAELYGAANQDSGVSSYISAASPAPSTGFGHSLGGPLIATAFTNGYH
# Experiment: nsRBNS (natural sequence RNA bind-n-seq); RBNS binding buffer (assumed for nsRBNS): 25 mM Tris pH 7.5, 150 mM KCl, 3 mM MgCl2, 0.01% Triton X-100, 500 ug/ml BSA, 20 U/ml SUPERase-In, 4 C; UNK is unkempt and MSI1 is Musashi-1; names of the RNAs are library labels; protein concentration not given here; high values mean tight binding
row,Binder,binding signal [enrichment R]
1,B1,0.921
2,B2,0.214
3,B3,13.1
4,B4,0.432
5,B5,0.318
6,B6,6.9
7,B7,0.603
8,B8,0.405
9,B9,0.543
10,B10,1.65
11,B11,0.295
12,B12,0.611
13,B13,0.583
14,B14,0.208
15,B15,0.379
16,B16,0.632
17,B17,0.43
18,B18,0.431
19,B19,0.559
20,B20,6.67
21,B21,0.24
22,B22,0.476
